Measured values published in ChEMBL document CHEMBL4689842, “EUbOPEN Chemogenomics Library wave 1” (2021).
Some entries of the source have several records that differ or are many. The other results are left out here. An entry can have further records. The records of an entry are repeats across runs, samples, wells, individuals or studies.

Tests used:
Format in all cases: toxicity, cell-based
[1] = system: HEK-293T; assay: Multiplex assay against HEK293T; conditions: human;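 as to Population Tubulin-Different-Phenotype (%): share of the cells with healthy nuclei that show this phenotype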
In short: (§1)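 On a CQ1 microscope at 37°C and 5% CO2, live cells were imaged after compound addition. They had been stained at seeding with Hoechst33342, BioTracker Green Microtubule Cytoskeleton Dye, MitoTracker Red and Annexin V Alexa Fluor 680. CellPathfinder machine-learning gating assigned cells to Hoechst high-intensity objects or normal cells, normal cells to healthy, pyknosed or fragmented nuclei, and pyknosed cells to mitotic or apoptotic. Tubulin, mitochondrial-mass and membrane-permeability phenotypes are per cents of healthy-nucleus cells.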

[2] = system: Fibroblast; assay: Multiplex assay against human fibroblast; in short: as §1
[3] = system: U2OS; assay: Multiplex assay against U2OS; conditions: human; in short: as §1
[4] = 12 h, 1 µM, compound concentration 1 uM, replicate 1
[5] = 12 h, 1 µM, compound concentration 1 uM, replicate 2
[6] = 12 h, 10 µM, compound concentration 10 uM, replicate 1
[7] = 12 h, 10 µM, compound concentration 10 uM, replicate 2
[8] = 24 h, 1 µM, compound concentration 1 uM, replicate 1
[9] = 24 h, 1 µM, compound concentration 1 uM, replicate 2
[10] = 24 h, 10 µM, compound concentration 10 uM, replicate 1
[11] = 24 h, 10 µM, compound concentration 10 uM, replicate 2
[12] = 48 h, 1 µM, compound concentration 1 uM, replicate 2
[13] = 48 h, 10 µM, compound concentration 10 uM, replicate 2

O=C(NCCCC1CCCCC1)c1ccc(CNC(=O)c2cnn(-c3ccccc3)c2C(F)(F)F)cc1 [SR-321]
Population Mitochondria Different-Phenotype (%) [1, 4]: 75, 60, 74, 3%
Population Pyknosed Nuclei (%) [1, 4]: 60%, 51%, 16%
Population Tubulin-Different-Phenotype (%) [1, 4]: 32, 25, 37, 2%
Population Pyknosed Nuclei (%) [1, 5]: 58, 53, 50, 4%
Population Tubulin-Different-Phenotype (%) [1, 5]: 13, 20, 17, 5%
Total Cell Count [1, 5]: 190, 170, 173, 1739
Population Healthy Nuclei (%) [1, 6]: 16, 22, 24, 69%
Population Mitochondria Different-Phenotype (%) [1, 6]: 88, 84, 83, 9%
Population Pyknosed Nuclei (%) [1, 6]: 66, 60, 63, 21%
Population Tubulin-Different-Phenotype (%) [1, 6]: 41, 43, 50, 9%
Population Apoptotic (%) [1, 7]: 13, 28, 20, 3%
Population Fragmented Nuclei (%) [1, 7]: 3, 8, 10, 4%
Population Mitochondria Different-Phenotype (%) [1, 7]: 37, 31, 40, 12%
Population Pyknosed Nuclei (%) [1, 7]: 58, 59, 54, 7%
Total Cell Count [1, 7]: 220, 207, 193, 1414
Population Apoptotic (%) [1, 8]: 40, 45, 41, 14%
Population Mitochondria Different-Phenotype (%) [1, 8]: 46, 45, 63, 2%
Population Pyknosed Nuclei (%) [1, 8]: 43, 46, 48, 6%
Population Tubulin-Different-Phenotype (%) [1, 8]: 28, 22, 41, 3%
Population Apoptotic (%) [1, 9]: 17%, 10%, 5%
Population Fragmented Nuclei (%) [1, 9]: 8%, 4%, 27%
Population Mitochondria Different-Phenotype (%) [1, 9]: 4%, 9%, 1%
Population Pyknosed Nuclei (%) [1, 9]: 26, 29, 34, 1%
Total Cell Count [1, 9]: 222, 237, 264, 2967
Population Healthy Nuclei (%) [1, 10]: 23%, 17%, 81%
Population Hoechst High Intensity Objects (%) [1, 10]: 18, 19, 14, 6%
Population Mitochondria Different-Phenotype (%) [1, 10]: 88%, 85%, 5%
Population Pyknosed Nuclei (%) [1, 10]: 59, 62, 57, 10%
Total Cell Count [1, 10]: 269, 307, 244, 864
Population Apoptotic (%) [1, 11]: 26%, 18%, 4%
Population Fragmented Nuclei (%) [1, 11]: 5, 7, 4, 17%
Population Membrane Permeable-Phenotype (%) [1, 11]: 2%, 3%, 14%
Population Mitochondria Different-Phenotype (%) [1, 11]: 43, 46, 47, 3%
Population Pyknosed Nuclei (%) [1, 11]: 49, 36, 44, 3%
Total Cell Count [1, 11]: 249, 248, 279, 2237
Population Membrane Permeable-Phenotype (%) [2, 4]: 21, 20, 25, 3%
Population Tubulin-Different-Phenotype (%) [2, 4]: 39, 33, 51, 2%
Population Apoptotic (%) [2, 5]: 66, 0, 50, 100%
Population Fragmented Nuclei (%) [2, 5]: 5, 40, 10, 73%
Population Healthy Nuclei (%) [2, 5]: 89, 53, 83, 21%
Population Hoechst High Intensity Objects (%) [2, 5]: 8, 21, 7, 43%
Population Mitochondria Different-Phenotype (%) [2, 5]: 10, 20, 2, 11%
Population Mitotic Cells (%) [2, 5]: 33, 100, 50, 0%
Population Tubulin-Different-Phenotype (%) [2, 5]: 20%, 26%, 0%
Population Membrane Permeable-Phenotype (%) [2, 6]: 32, 22, 21, 9%
Population Mitochondria Different-Phenotype (%) [2, 6]: 13, 25, 11, 5%
Population Tubulin-Different-Phenotype (%) [2, 6]: 39, 52, 72, 14%
Population Apoptotic (%) [2, 7]: 20%, 18%, 55%
Population Fragmented Nuclei (%) [2, 7]: 21, 17, 9, 50%
Population Hoechst High Intensity Objects (%) [2, 7]: 26, 5, 8, 29%
Population Mitochondria Different-Phenotype (%) [2, 7]: 22, 33, 2, 7%
Population Pyknosed Nuclei (%) [2, 7]: 6, 15, 20, 12%
Population Tubulin-Different-Phenotype (%) [2, 7]: 9, 23, 5, 40%
Population Membrane Permeable-Phenotype (%) [2, 8]: 30, 23, 22, 7%
Population Tubulin-Different-Phenotype (%) [2, 8]: 40, 46, 56, 1%
Population Apoptotic (%) [2, 9]: 0%, 60%, 40%
Population Fragmented Nuclei (%) [2, 9]: 29, 10, 11, 67%
Population Healthy Nuclei (%) [2, 9]: 66, 82, 74, 25%
Population Hoechst High Intensity Objects (%) [2, 9]: 14, 4, 10, 43%
Population Pyknosed Nuclei (%) [2, 9]: 3%, 7%, 14%
Population Tubulin-Different-Phenotype (%) [2, 9]: 30%, 15%, 0%
Population Membrane Permeable-Phenotype (%) [2, 10]: 25, 18, 16, 6%
Population Mitochondria Different-Phenotype (%) [2, 10]: 27, 18, 28, 2%
Population Tubulin-Different-Phenotype (%) [2, 10]: 54, 63, 78, 14%
Population Hoechst High Intensity Objects (%) [2, 11]: 6, 18, 7, 36%
Population Mitochondria Different-Phenotype (%) [2, 11]: 23, 14, 5, 4%
Population Tubulin-Different-Phenotype (%) [2, 11]: 26, 9, 5, 23%
Population Apoptotic (%) [2, 12]: 100% and 0%
Population Membrane Permeable-Phenotype (%) [2, 13]: 25%, 16%, 8%
Population Mitotic Cells (%) [2, 13]: 50% and 0%
Population Pyknosed Nuclei (%) [2, 13]: 4%, 1%, 3%
Population Fragmented Nuclei (%) [3, 4]: 11%, 12%, 1%
Population Mitochondria Different-Phenotype (%) [3, 4]: 5%, 11%, 31%
Population Apoptotic (%) [3, 5]: 66%, 0%, 50%
Population Fragmented Nuclei (%) [3, 5]: 5, 40, 10, 4%
Population Mitochondria Different-Phenotype (%) [3, 5]: 10, 20, 2, 27%
Population Mitotic Cells (%) [3, 5]: 33%, 100%, 50%
Population Membrane Permeable-Phenotype (%) [3, 6]: 6, 4, 2, 21%
Population Apoptotic (%) [3, 7]: 20, 50, 18, 11%
Population Fragmented Nuclei (%) [3, 7]: 21%, 17%, 4%
Population Hoechst High Intensity Objects (%) [3, 7]: 26, 5, 8, 7%
Population Mitochondria Different-Phenotype (%) [3, 7]: 22, 33, 2, 26%
Population Pyknosed Nuclei (%) [3, 7]: 6%, 20%, 9%
Population Tubulin-Different-Phenotype (%) [3, 7]: 9, 23, 5, 10%
Population Hoechst High Intensity Objects (%) [3, 8]: 5%, 3%, 1%
Population Mitochondria Different-Phenotype (%) [3, 8]: 4%, 5%, 29%
Population Apoptotic (%) [3, 9]: 0% and 60%
Population Fragmented Nuclei (%) [3, 9]: 29%, 10%, 3%
Population Hoechst High Intensity Objects (%) [3, 9]: 14, 4, 10, 2%
Population Pyknosed Nuclei (%) [3, 9]: 3%, 14%, 2%
Population Fragmented Nuclei (%) [3, 10]: 12, 8, 11, 3%
Population Apoptotic (%) [3, 11]: 50%, 33%, 11%
Population Fragmented Nuclei (%) [3, 11]: 20%, 16%, 6%
Population Hoechst High Intensity Objects (%) [3, 11]: 6, 18, 7, 3%
Population Membrane Permeable-Phenotype (%) [3, 11]: 10%, 1%, 11%
Population Mitochondria Different-Phenotype (%) [3, 11]: 23, 14, 5, 21%
Population Tubulin-Different-Phenotype (%) [3, 11]: 26%, 5%, 16%
Population Apoptotic (%) [3, 12]: 70%, 0%, 28%
Population Mitotic Cells (%) [3, 12]: 30%, 100%, 71%
Population Hoechst High Intensity Objects (%) [3, 13]: 17%, 5%, 8%
Population Pyknosed Nuclei (%) [3, 13]: 20%, 6%, 16%

C[C@@]1(C(=O)Nc2ccc(F)nc2)CCCN1c1nc(Nc2cc(C3CC3)n[nH]2)c2cccn2n1 [BMS-754807]
Population Apoptotic (%) [1, 6]: 73% and 16%
Population Healthy Nuclei (%) [1, 6]: 15% and 59%
Population Mitochondria Different-Phenotype (%) [1, 6]: 96% and 15%
Population Mitotic Cells (%) [1, 6]: 26% and 84%
Population Tubulin-Different-Phenotype (%) [1, 6]: 87% and 23%
Population Apoptotic (%) [1, 7]: 48% and 15%
Population Healthy Nuclei (%) [1, 7]: 11% and 88%
Population Mitochondria Different-Phenotype (%) [1, 7]: 100% and 22%
Population Pyknosed Nuclei (%) [1, 7]: 80% and 7%
Total Cell Count [1, 7]: 182 and 940
Population Healthy Nuclei (%) [1, 10]: 14% and 74%
Population Mitochondria Different-Phenotype (%) [1, 10]: 100% and 11%
Population Pyknosed Nuclei (%) [1, 10]: 67% and 11%
Population Apoptotic (%) [1, 11]: 69% and 18%
Population Healthy Nuclei (%) [1, 11]: 24% and 86%
Population Mitochondria Different-Phenotype (%) [1, 11]: 85% and 9%
Population Pyknosed Nuclei (%) [1, 11]: 68% and 4%
Total Cell Count [1, 11]: 183 and 988
Population Membrane Permeable-Phenotype (%) [2, 6]: 37% and 12%
Population Mitochondria Different-Phenotype (%) [2, 6]: 25% and 3%
Population Tubulin-Different-Phenotype (%) [2, 6]: 85% and 6%
Population Fragmented Nuclei (%) [2, 7]: 54% and 15%
Population Mitochondria Different-Phenotype (%) [2, 7]: 17% and 70%
Population Mitotic Cells (%) [2, 7]: 20% and 66%
Population Pyknosed Nuclei (%) [2, 7]: 8% and 26%
Population Tubulin-Different-Phenotype (%) [2, 7]: 21% and 88%
Population Mitochondria Different-Phenotype (%) [2, 10]: 23% and 1%
Population Tubulin-Different-Phenotype (%) [2, 10]: 82% and 4%
Population Fragmented Nuclei (%) [2, 11]: 63% and 17%
Population Hoechst High Intensity Objects (%) [2, 11]: 31% and 9%
Population Membrane Permeable-Phenotype (%) [2, 11]: 6% and 22%
Population Pyknosed Nuclei (%) [2, 11]: 8% and 34%
Population Tubulin-Different-Phenotype (%) [2, 11]: 18% and 77%
Population Tubulin-Different-Phenotype (%) [3, 6]: 89% and 14%
Population Pyknosed Nuclei (%) [3, 7]: 26% and 7%
Population Tubulin-Different-Phenotype (%) [3, 7]: 88% and 22%
Population Tubulin-Different-Phenotype (%) [3, 10]: 17% and 83%
Population Apoptotic (%) [3, 11]: 37% and 10%
